Structures are written as SMILES. In all, about 310,000 compounds went through this assay and about 2,200 (0.71%) showed an effect of 50% or more. Effects have a minus sign here. This is one part of the list.

Sequence of human ether-à-go-go-related gene (hERG) potassium channel (Q12809 whole entry, looked up): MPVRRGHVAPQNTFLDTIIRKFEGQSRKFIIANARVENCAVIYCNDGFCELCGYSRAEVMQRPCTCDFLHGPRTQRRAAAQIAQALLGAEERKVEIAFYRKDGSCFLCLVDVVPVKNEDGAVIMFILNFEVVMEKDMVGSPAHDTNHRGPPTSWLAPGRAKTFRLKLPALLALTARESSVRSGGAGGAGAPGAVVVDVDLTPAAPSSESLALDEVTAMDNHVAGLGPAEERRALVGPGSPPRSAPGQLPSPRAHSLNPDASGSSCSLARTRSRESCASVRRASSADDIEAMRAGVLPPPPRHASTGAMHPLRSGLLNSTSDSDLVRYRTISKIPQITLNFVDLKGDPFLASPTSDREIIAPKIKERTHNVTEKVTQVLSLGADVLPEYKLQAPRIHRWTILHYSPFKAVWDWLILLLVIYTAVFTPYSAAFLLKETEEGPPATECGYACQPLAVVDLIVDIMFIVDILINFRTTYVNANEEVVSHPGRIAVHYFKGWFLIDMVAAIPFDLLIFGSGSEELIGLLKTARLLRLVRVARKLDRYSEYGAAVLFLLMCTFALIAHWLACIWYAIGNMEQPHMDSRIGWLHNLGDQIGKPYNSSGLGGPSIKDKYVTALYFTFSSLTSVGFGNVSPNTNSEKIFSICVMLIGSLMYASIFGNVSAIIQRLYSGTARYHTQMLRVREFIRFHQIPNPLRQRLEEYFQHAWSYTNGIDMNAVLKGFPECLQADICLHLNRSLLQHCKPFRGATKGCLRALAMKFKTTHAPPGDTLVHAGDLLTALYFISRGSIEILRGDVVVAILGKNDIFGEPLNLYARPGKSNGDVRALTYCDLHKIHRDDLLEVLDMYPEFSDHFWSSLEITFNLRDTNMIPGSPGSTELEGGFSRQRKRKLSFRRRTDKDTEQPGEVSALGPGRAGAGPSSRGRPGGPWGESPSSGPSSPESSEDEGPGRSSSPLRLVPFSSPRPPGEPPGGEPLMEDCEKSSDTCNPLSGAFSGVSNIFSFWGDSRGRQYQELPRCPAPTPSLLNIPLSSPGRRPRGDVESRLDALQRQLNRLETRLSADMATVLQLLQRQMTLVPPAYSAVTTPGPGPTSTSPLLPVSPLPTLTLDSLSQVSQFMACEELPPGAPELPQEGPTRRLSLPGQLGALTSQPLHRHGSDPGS

This assay concerns the target human ether-à-go-go-related gene (hERG) potassium channel (human, UniProt Q12809). In words: primary screen, population patch clamp on CHO cells stably expressing hERG.
As for `Cc1ccc(-c2ccc(=O)n(CC(=O)NCCN3CCCCC3C)n2)cc1` (stereo not shown), the “hERG current change (%, negative = inhibition) at 1uM” value is 4.17%.
`CCOc1cc(C2C3=C(CCCC3=O)NC3=C2C(=O)CCC3)cc(Cl)c1O`: the “hERG current change (%, negative = inhibition) at 1uM” value is -5.15%.
For `CN1CCN(CC(O)COc2ccc(S(=O)(=O)N3CCOCC3)cc2)CC1` (stereo not shown) the value was 13.8%.
Regarding `CCOC(=O)CCNC(=O)Nc1ccc2nc(C)n(Cc3cccc(Cl)c3)c(=O)c2c1`, the “hERG current change (%, negative = inhibition) at 1uM” value worked out at 3.88%.
For `CCC(C)c1ccccc1NC(=O)C(C)Sc1n[nH]c(N)n1` (stereo not shown) the value was 11.9%; for `COc1ccc(NC(=O)C2CCCO2)cc1OC` (stereo not shown), 2.16%; for `O=C(c1ccccc1)c1ccc(OC(=O)N2CCCC2)cc1`, -0.153%.
Next, `O=C(COc1ccccc1/C=C1/NC(=O)NC1=O)Nc1ccccc1`: 9.12%; `CC(=O)Nc1ccc(C(=S)NCC2(N(C)C)CCCCC2)cc1`: 6.81%; `NC(=O)C1CCN(CCC(=O)Nc2ccc(F)c(F)c2)CC1`: 13.8%.
For `COc1cc(NS(=O)(=O)c2cc3c(cc2C)NC(=O)CO3)cc(OC)c1` the value was -44.5%; for `C=CCOc1ccc(CNCC2CCCO2)cc1.Cl` (stereo not shown), 13.4%.
Turning to `Cn1c(N)c(S(=O)(=O)c2ccc(Br)cc2)c2nc3ccccc3nc21`, the “hERG current change (%, negative = inhibition) at 1uM” value is recorded as 12.1%.
For `CC(=O)c1ccc(S(=O)(=O)Nc2cccc(S(=O)(=O)NC3=NCCC3)c2)cc1` the value was 11.7%; for `O=C(CCC(=O)Nc1ccc(F)cc1)N/N=C/c1ccc(Br)cc1`, 13.2%.
For `COC(c1ccccc1)c1nnc(CCC(=O)N(C)CCOc2ccccc2)o1` (stereo not shown) the value was 13.1%; for `CCN1CCCC1CN(Cc1cc2ccc(C)c(C)c2[nH]c1=O)C(=O)Nc1ccccc1OC` (stereo not shown), -21.9%; for `CCOc1ccccc1N1C(=O)c2ccc(S(=O)(=O)c3ccc(C(=O)O)cc3)cc2C1=O`, 11.9%.
For the molecule `COc1ccc(/C=C/C(=O)OCC(=O)c2ccc[nH]2)cc1`, the “hERG current change (%, negative = inhibition) at 1uM” value is 9.57%.
Next, `COc1cc(/C=C2\N=C(c3ccccc3)OC2=O)ccc1OCc1c(C)no[n+]1[O-]`: 6.82%; `CC(C)CCNC(=O)c1c(N)n(CC2CCCO2)c2nc3ccccc3nc12` (stereo not shown): 11.9%; `CCC(c1nnnn1Cc1ccc2c(c1)OCO2)N1CCN(c2ccc(OC)cc2)CC1` (stereo not shown): -9.27%.
`CCCCN(C(=O)c1ccc(-c2ccc(Cl)cc2)o1)c1c(N)n(CCC)c(=O)[nH]c1=O`: the “hERG current change (%, negative = inhibition) at 1uM” value amounted to 0.92%.
Next, `COc1cccc(/C=C(\C#N)C(=O)NC2CCS(=O)(=O)C2)c1` (stereo not shown): 8.07%.
Next, `O=C(Oc1ccc(C(=S)N2CCOCC2)cc1Br)c1ccccc1F`: 11.1%.
For the molecule `CCN1CC2([N+](=O)[O-])CC=C(OC)C([N+](=O)[O-])(C1)C2` (stereo not shown), the “hERG current change (%, negative = inhibition) at 1uM” value turned out to be 5.46%.
Consider `COc1ccc(Cl)cc1C(=O)OCC(=O)N(CC(C)C)c1c(N)n(Cc2ccccc2)c(=O)[nH]c1=O`, for which the “hERG current change (%, negative = inhibition) at 1uM” value is listed as 9.47%.
For `COc1ccc(CN(CCN(C)C)Cc2ccccc2)c(OC)c1.O=C(O)C(=O)O` the value was -3.15%; for `CCOC(=O)C1C(C(=O)NN)C1C(=O)Nc1ccccc1` (stereo not shown), 26%.
Next, `Fc1cc(F)c(NC(=S)N2CCOCC2)c(F)c1`: 4.98%; `CCCCc1nc2n[nH]c(N)c2c2c1CCC2`: -9.01%.
In the case of `CC(=O)c1ccc(-n2nncc2C(C)(C)C)cc1`, the “hERG current change (%, negative = inhibition) at 1uM” value was determined as 7.36%.
For `C/C(CC1CC(C)(C)OC1=O)=N\NC(N)=S` (stereo not shown) the value was 10%.
Next, `COc1cc(/C=C/C(=O)OCC(=O)N2CCN(S(=O)(=O)c3ccc(C)cc3C)CC2)ccc1O`: 15.6%; `C/C(=N\NC(N)=S)c1cccnc1`: 2.3%; `Cc1ccc2[nH]cc(C(=O)NCc3cccs3)c(=O)c2c1`: -1.23%.
Turning to `NC(=O)C1CCN(C(=O)c2ccc(F)c(S(=O)(=O)N3CCOCC3)c2)CC1`, the “hERG current change (%, negative = inhibition) at 1uM” value amounted to 7.9%.
As for `O=C(Cc1cccc2ccccc12)Nc1c(F)cccc1F`, the “hERG current change (%, negative = inhibition) at 1uM” value was 10.9%.
Next, `C=CCN(c1ccccc1)S(=O)(=O)c1cccc(C(=O)NCC(c2cccs2)N2CCOCC2)c1` (stereo not shown): 7.99%; `COc1cc(C(=O)NCc2nnc(SCC(=O)Nc3cccc(C)c3)o2)cc(OC)c1OC`: -2.29%.
For the molecule `COCCNCC(=O)NCC12CC3CC(CC(C3)C1)C2.Cl`, the “hERG current change (%, negative = inhibition) at 1uM” value was determined as 12.7%.
In the case of `COc1ccc(CNC(=O)CCS(=O)(=O)c2cc3c(cc2Cl)NC(=O)CO3)cc1`, the “hERG current change (%, negative = inhibition) at 1uM” value stood at 7.95%.
For `COCCOC(=O)c1c(C)oc2ccc(NS(=O)(=O)c3cccs3)cc12`, the “hERG current change (%, negative = inhibition) at 1uM” value amounted to 4.57%.
Next, `Cn1c(-c2cccc([N+](=O)[O-])c2)cnc1NCc1cccc(F)c1.O=C(O)C(=O)O`: -20.7%; `C/C(=N/NC(=O)c1ccc2c(c1)OCO2)c1ccc(Br)s1`: 5.81%; `Cc1cc(C)nc(N2CCC(C(=O)NCc3cccs3)CC2)n1`: 4.72%.
For `O=C(c1ccc(SCc2cccc(Br)c2)c([N+](=O)[O-])c1)N1CCN(c2ccccn2)CC1` the value was -2.45%; for `Cc1ccc(-c2cnc(C3CC3)o2)cc1S(=O)(=O)Nc1ccccc1`, 8.9%.
As to `CCCOP(=O)(c1ccc(N(C)C)cc1)C(O)c1cc(OC)c(OC)c(OC)c1` (stereo not shown), the “hERG current change (%, negative = inhibition) at 1uM” value is 7.16%.
As to `O=S(=O)(CCn1cccc1)CCn1cccc1`, the “hERG current change (%, negative = inhibition) at 1uM” value turned out to be 17.3%.
With `COc1cccc(CN2CC(C(=O)N(C)CCc3ccccc3)CCC2=O)c1` (stereo not shown), the “hERG current change (%, negative = inhibition) at 1uM” value stood at 9.44%.
For `CCN(CC)C(=O)Cn1cnc2sc(C(=O)N3CCN(c4ccc(F)cc4)CC3)c(C)c2c1=O` the value was -6.94%; for `COCCn1c(SC2CCCCC2=O)nnc1-c1ccncc1` (stereo not shown), 14.8%; for `CCCOc1ccc(N2C(=O)CC(N3CCCC(C(=O)N4CCCC4)C3)C2=O)cc1` (stereo not shown), 1.72%.
Next, `COc1ccc(S(=O)(=O)N2CCOC2CNC(=O)C(=O)NCc2ccncc2)cc1OC` (stereo not shown): 4.24%; `CC(C)(C)c1ccc(C2CC2C(=O)N/N=C\c2cc3ccccc3nc2Cl)cc1` (stereo not shown): -5.85%.
For `CC(C)N=C(NC#N)SCc1ccc(F)cc1` the value was 10.6%; for `Cc1c(C)c2ccc(OCC(=O)NC3CCN(Cc4ccccc4)CC3)c(C)c2oc1=O`, -5.62%; for `OCc1ccccc1OCCCOc1cccc2cccnc12`, 9.1%.
For the molecule `CC1(C(=O)NCc2cccnc2)CCC(=O)N1CCc1ccccc1` (stereo not shown), the “hERG current change (%, negative = inhibition) at 1uM” value is recorded as 3.82%.
`COC(=O)c1c(NC(=O)CN2CCC3(O)CCCCC3C2c2ccc(OC)cc2OC)sc(C)c1C` (stereo not shown): the “hERG current change (%, negative = inhibition) at 1uM” value was 10.2%.
For `COc1ccc(CCN2C(=O)CC(C(N)=O)SC2=Nc2ccccc2)cc1` (stereo not shown), the “hERG current change (%, negative = inhibition) at 1uM” value stood at 5.42%.
On to `CCOC(=O)N1CCN(C(=O)c2oc3ccc(S(=O)(=O)N4CCOCC4)cc3c2C)CC1`, for which the “hERG current change (%, negative = inhibition) at 1uM” value worked out at 3.2%.
Next, `O=C(/C=C/c1ccc([N+](=O)[O-])s1)N1CCCC1`: -14.9%; `CCn1c2ccccc2c2nnc(SCC(=O)NC3CCS(=O)(=O)C3)nc21` (stereo not shown): 8.68%.
Consider `CNC(=O)c1[nH]cnc1C(=O)Nc1ccccc1`, for which the “hERG current change (%, negative = inhibition) at 1uM” value was 7.15%.
As for `CCc1ccc2oc(-c3cc(N)cc(C)c3O)nc2c1`, the “hERG current change (%, negative = inhibition) at 1uM” value was determined as 12.5%.
For `O=C(c1ccc(Br)cc1)N1CCCC(c2nc(-c3cccs3)no2)C1` (stereo not shown) the value was 14.9%; for `Cc1cc(C(=O)O)cc(S(=O)(=O)Nc2ccccc2C(=O)NC(C)c2ccccc2)c1C` (stereo not shown), 14.6%; for `CC(C)CN1CCC(C(=O)N2CCN(c3ccccc3F)CC2)CC1`, -8.1%.
For the molecule `CN(C)/C=N/C(=S)Nc1ccc(F)cc1`, the “hERG current change (%, negative = inhibition) at 1uM” value is 10.4%.
With `CCN(CC)S(=O)(=O)c1cccc(-c2nnc(SCC(=O)NC)n2CCc2ccccc2)c1`, the “hERG current change (%, negative = inhibition) at 1uM” value was -4.52%.
Next, `O=C(c1c(F)cccc1F)N(C1CCCCC1)C1CCCCC1`: 3.94%.
With `CS(=O)(=O)N1CCCC(C(=O)NCCc2ccc(Cl)cc2)C1` (stereo not shown), the “hERG current change (%, negative = inhibition) at 1uM” value is listed as -13.3%.
For `COc1ccc(OCc2nnc3n2N=C(c2ccc(OC)cc2)CS3)cc1` the value was 4.89%; for `C=CCOc1ccc(/C=N/Nc2ccccn2)cc1OC`, 13%; for `NC(=O)COC(=O)CC12CC3CC(CC(Br)(C3)C1)C2`, 14.2%.
Turning to `CC(C)(Oc1ccc(Br)cc1Cl)C(=O)Nc1ccon1`, the “hERG current change (%, negative = inhibition) at 1uM” value is on record as -8.06%.
Next, `CCCCNS(=O)(=O)c1ccc2c(c1)oc(=O)n2CC(=O)OCC`: 17%; `COc1cccc2cc(CC(=O)c3cc(C)ccc3C)c(=O)oc12`: 14.5%.
For `CC(C)N(C(=O)COC(=O)[C@H](C)NC(=O)c1ccco1)c1ccccc1` the value was 17.1%; for `Cc1cc(-c2nn(-c3ccccc3F)cc2CN2CCCC(C(N)=O)C2)c(C)s1` (stereo not shown), 0.456%; for `CC/C(Cc1ccccc1)=N\NC(=O)c1cc([N+](=O)[O-])cc([N+](=O)[O-])c1`, -10.9%.
For `CCCN(CCC)CC(=O)NCC1(c2ccccc2)CCOCC1.Cl`, the “hERG current change (%, negative = inhibition) at 1uM” value turned out to be 2.31%.
Next, `Cc1cccc(Nc2nc(NCc3ccco3)nc(N)c2[N+](=O)[O-])c1`: 15.3%.
Next, `COC(=O)Cn1c(CN2CCc3ccccc3C2)nc2c1c(=O)n(C)c(=O)n2C`: -3.51%; `CC(C)(CNC(=O)c1ccc(S(=O)(=O)N2CCCC2)cc1)N1CCOCC1`: 9.89%.
Next, `CCOC(=O)c1c(NC(C)=O)sc2c1C1CCN2CC1.Cl`: 15.1%.
